Test results published in PMC10897448.
Where two headings read alike, the source gives them in different places. These are yes or no findings as the source states them, for the method shown. For part of these data: In cells and extracts the contact can be indirect. Some binding calls cover weakened binding; strength is not graded here. For part of these data: Where a sequence is shown, tags or fusion partners need not be part of it.

Chains of the proteins cited; added tags and fusions are not shown. Lines headed by an entry give the natural chain unless they say otherwise; changes in a name come on top.
UniProt P19484: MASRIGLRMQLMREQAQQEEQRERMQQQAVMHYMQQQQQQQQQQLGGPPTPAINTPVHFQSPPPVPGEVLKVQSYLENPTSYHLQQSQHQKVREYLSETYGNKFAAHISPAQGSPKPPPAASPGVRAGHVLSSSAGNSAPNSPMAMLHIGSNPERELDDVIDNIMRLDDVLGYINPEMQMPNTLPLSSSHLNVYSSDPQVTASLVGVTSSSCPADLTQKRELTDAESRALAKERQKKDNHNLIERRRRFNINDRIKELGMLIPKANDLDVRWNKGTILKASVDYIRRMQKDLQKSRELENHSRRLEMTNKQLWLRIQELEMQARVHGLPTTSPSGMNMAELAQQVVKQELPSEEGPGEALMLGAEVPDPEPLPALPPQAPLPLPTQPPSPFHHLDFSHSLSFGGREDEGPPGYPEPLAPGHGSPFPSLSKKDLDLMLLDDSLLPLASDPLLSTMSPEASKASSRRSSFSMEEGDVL
UniProt Q15388: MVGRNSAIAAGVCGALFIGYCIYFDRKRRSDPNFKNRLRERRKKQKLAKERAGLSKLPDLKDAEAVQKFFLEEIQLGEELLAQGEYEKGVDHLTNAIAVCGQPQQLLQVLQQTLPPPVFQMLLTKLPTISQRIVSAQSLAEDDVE

What was measured:
[1] = target: endogenous TFEB (transcription factor EB) (human (endogenous in HeLa)) (UniProt P19484); assay: co-IP; endogenous TFEB immunoprecipitated from 1 mg HeLa whole cell lysate (untreated or torin-1-treated) with 2 ug antibody overnight at 4 C, protein A sepharose beads; isotype rabbit IgG as negative control; immunoblot
[2] = target: MLS-TFEB FLAG (TFEB mutated in the mitochondrial localization sequence, V30K) (UniProt P19484); assay: co-IP; co-immunoprecipitation of ectopically expressed WT-TFEB or MLS-TFEB with TOMM20; told only in the discussion, no conditions given
[3] = target: WT-TFEB FLAG (ectopically expressed transcription factor EB) (UniProt P19484); assay: as above
[4] = target: endogenous TFEB (transcription factor EB) (human (endogenous in HeLa)) (UniProt P19484); assay: co-IP; endogenous TFEB immunoprecipitated from 1 mg HeLa whole cell lysate (untreated or torin-1-treated) with 2 ug antibody overnight at 4 C, protein A sepharose beads; isotype rabbit IgG as negative control; immunoblot; remark: listed apart in the source
[5] = target: TFEB-FLAG (overexpressed in HEK293T) (UniProt P19484); assay: co-IP; HEK293T cells overexpressing TFEB-FLAG and LONP1-HA; 1 mg lysate with M2 anti-FLAG and Protein G magnetic beads; empty vector as negative control; immunoblot
[6] = target: TFEB-FLAG (overexpressed in HEK293T) (UniProt P19484); assay: pull-down; LONP1-HA purified from HEK293T (anti-HA, eluted with HA peptide in Buffer A) incubated with TFEB-FLAG held on M2 anti-FLAG agarose beads or control beads; immunoblot; both purified

With “TOMM20 (endogenous, HeLa) (from UniProt Q15388 1-145)” the binding [1] was “binds”.

With “TOMM20 (in cells expressing ectopic TFEB) (from UniProt Q15388 1-145)” the binding [2] was “no binding” and the binding [3] was “binds”.

B1: LONP1 (endogenous, HeLa) (enzyme, UniProt P36776 68-959)
chain: FWEASSRGGGAFSGGEDASEGGAEEGAGGAGGSAGAGEGPVITALTPMTIPDVFPHLPLIAITRNPVFPRFIKIIEVKNKKLVELLRRKVRLAQPYVGVFLKRDDSNESDVVESLDEIYHTGTFAQIHEMQDLGDKLRMIVMGHRRVHISRQLEVEPEEPEAENKHKPRRKSKRGKKEAEDELSARHPAELAMEPTPELPAEVLMVEVENVVHEDFQVTEEVKALTAEIVKTIRDIIALNPLYRESVLQMMQAGQRVVDNPIYLSDMGAALTGAESHELQDVLEETNIPKRLYKALSLLKKEFELSKLQQRLGREVEEKIKQTHRKYLLQEQLKIIKKELGLEKDDKDAIEEKFRERLKELVVPKHVMDVVDEELSKLGLLDNHSSEFNVTRNYLDWLTSIPWGKYSNENLDLARAQAVLEEDHYGMEDVKKRILEFIAVSQLRGSTQGKILCFYGPPGVGKTSIARSIARALNREYFRFSVGGMTDVAEIKGHRRTYVGAMPGKIIQCLKKTKTENPLILIDEVDKIGRGYQGDPSSALLELLDPEQNANFLDHYLDVPVDLSKVLFICTANVTDTIPEPLRDRMEMINVSGYVAQEKLAIAERYLVPQARALCGLDESKAKLSSDVLTLLIKQYCRESGVRNLQKQVEKVLRKSAYKIVSGEAESVEVTPENLQDFVGKPVFTVERMYDVTPPGVVMGLAWTAMGGSTLFVETSLRRPQDKDAKGDKDGSLEVTGQLGEVMKESARIAYTFARAFLMQHAPANDYLVTSHIHLHVPEGATPKDGPSAGCTIVTALLSLAMGRPVRQNLAMTGEVSLTGKILPVGGIKEKTIAAKRAGVTCIVLPAENKKDFYDLAAFITEGLEVHFVEHYREIFDIAFPDEQAEALAVER
B1 was tested, and the binding [4] was “binds”.

B2: LONP1-HA (enzyme, UniProt P36776 68-959)
chain: FWEASSRGGGAFSGGEDASEGGAEEGAGGAGGSAGAGEGPVITALTPMTIPDVFPHLPLIAITRNPVFPRFIKIIEVKNKKLVELLRRKVRLAQPYVGVFLKRDDSNESDVVESLDEIYHTGTFAQIHEMQDLGDKLRMIVMGHRRVHISRQLEVEPEEPEAENKHKPRRKSKRGKKEAEDELSARHPAELAMEPTPELPAEVLMVEVENVVHEDFQVTEEVKALTAEIVKTIRDIIALNPLYRESVLQMMQAGQRVVDNPIYLSDMGAALTGAESHELQDVLEETNIPKRLYKALSLLKKEFELSKLQQRLGREVEEKIKQTHRKYLLQEQLKIIKKELGLEKDDKDAIEEKFRERLKELVVPKHVMDVVDEELSKLGLLDNHSSEFNVTRNYLDWLTSIPWGKYSNENLDLARAQAVLEEDHYGMEDVKKRILEFIAVSQLRGSTQGKILCFYGPPGVGKTSIARSIARALNREYFRFSVGGMTDVAEIKGHRRTYVGAMPGKIIQCLKKTKTENPLILIDEVDKIGRGYQGDPSSALLELLDPEQNANFLDHYLDVPVDLSKVLFICTANVTDTIPEPLRDRMEMINVSGYVAQEKLAIAERYLVPQARALCGLDESKAKLSSDVLTLLIKQYCRESGVRNLQKQVEKVLRKSAYKIVSGEAESVEVTPENLQDFVGKPVFTVERMYDVTPPGVVMGLAWTAMGGSTLFVETSLRRPQDKDAKGDKDGSLEVTGQLGEVMKESARIAYTFARAFLMQHAPANDYLVTSHIHLHVPEGATPKDGPSAGCTIVTALLSLAMGRPVRQNLAMTGEVSLTGKILPVGGIKEKTIAAKRAGVTCIVLPAENKKDFYDLAAFITEGLEVHFVEHYREIFDIAFPDEQAEALAVER
In the case of B2, the binding [5] is reported as “binds” and the binding [6] is reported as “binds”.
